According to the supplement of paper PMC3334620:
The full ranking holds about 33,000 sequences; the median of “E-score (-0.5 to 0.5)” is about -0.041, and the highest 2% start at about 0.37. The list shows a part of the results.

biological target: T1, Ecm22 (UniProt Q05958); test: PBM E-score (8-mer binding enrichment) (E-score (-0.5 to 0.5)); higher = stronger / more preferred TF binding; most listed sequences are background and not binding sites; settings: protein concentration: 200 nM; construct: GST-full length
T1 sequence: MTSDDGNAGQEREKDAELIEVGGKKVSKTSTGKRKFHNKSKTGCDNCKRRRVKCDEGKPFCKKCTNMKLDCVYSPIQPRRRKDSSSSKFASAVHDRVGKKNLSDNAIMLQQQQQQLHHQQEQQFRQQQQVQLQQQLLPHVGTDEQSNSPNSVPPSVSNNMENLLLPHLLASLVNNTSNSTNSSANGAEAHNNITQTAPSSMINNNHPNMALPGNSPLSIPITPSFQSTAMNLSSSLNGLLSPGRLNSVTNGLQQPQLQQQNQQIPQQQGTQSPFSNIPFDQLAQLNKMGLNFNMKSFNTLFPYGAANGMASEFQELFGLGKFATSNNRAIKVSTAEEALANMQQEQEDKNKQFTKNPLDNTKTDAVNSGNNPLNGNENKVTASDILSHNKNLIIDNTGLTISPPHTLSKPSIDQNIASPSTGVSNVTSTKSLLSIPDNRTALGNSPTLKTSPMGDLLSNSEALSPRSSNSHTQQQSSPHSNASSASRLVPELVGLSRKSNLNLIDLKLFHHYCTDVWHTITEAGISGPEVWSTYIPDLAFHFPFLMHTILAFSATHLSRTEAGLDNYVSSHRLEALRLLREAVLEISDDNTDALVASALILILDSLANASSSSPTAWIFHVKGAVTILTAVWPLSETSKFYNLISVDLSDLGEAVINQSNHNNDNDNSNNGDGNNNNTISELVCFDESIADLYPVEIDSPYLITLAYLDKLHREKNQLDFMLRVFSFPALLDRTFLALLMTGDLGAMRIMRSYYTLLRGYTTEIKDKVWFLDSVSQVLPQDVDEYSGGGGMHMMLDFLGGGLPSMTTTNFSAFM
Summary of the method: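 Each ungapped eight-base word and its reverse complement, pooled, received an E-score from the Universal PBM Analysis Suite. Underlying scans, normalised with masliner, recorded fluorescent anti-GST bound to GST-tagged yeast transcription factors. These were applied at about 100-200 nM to universal all-10-mer Agilent arrays double-stranded by primer extension.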

| Sequence | PBM E-score |
| --- | --- |
| GTCCAGAC | -0.196 |
| CTCCTATA | -0.189 |
| ATCATATA | 0.0007 |
| CCACAATC | -0.0722 |
| CGTGCCTC | 0.00389 |
| AGTCCGGC | -0.138 |
| GCACTTAC | -0.0783 |
| TAAGGACA | -0.00602 |
| GAACTGAA | 0.172 |
| ACATAGAG | -0.206 |
| CAGGAAGA | -0.207 |
| ACGTCTGA | 0.0921 |
| CTGACACC | -0.196 |
| ACAATGCT | -0.207 |
| ACGGACCA | 0.25 |
| TGGATTAA | -0.213 |
| AGCCGAAA | 0.0487 |
| CTCCCGTA | 0.285 |
| GGCTTGCA | -0.165 |
| CGCTGACA | -0.118 |
| GTGCTAAC | -0.12 |
| AATTTACC | 0.0593 |
| AATGACTA | -0.217 |
| AAGATGAT | -0.052 |
| CGACCGCA | 0.217 |

| Sequence | PBM E-score |
| --- | --- |
| ATGTGGGG | -0.213 |
| AGCTGTAG | -0.12 |
| GGTAGAAC | -0.0103 |
| GCCCCCAA | -0.295 |
| ACATTGGT | -0.303 |
| ACTATAAG | 0.0435 |
| GAGGTGGC | -0.197 |
| CAAAGAGG | -0.216 |
| GATTCATA | -0.0359 |
| AATCGACT | -0.0819 |
| CTAGGAGC | -0.184 |
| CAATAGCC | -0.11 |
| ACGTGACT | -0.141 |
| TGGTTCAA | 0.0379 |
| CCTCGCTC | 0.372 |
| CCTAGCAA | -0.29 |
| GACACGAC | 0.196 |
| CAGTTTAA | -0.0565 |
| ACCTGGGA | -0.194 |
| CCGCAGTA | -0.184 |
| ACATTAGT | 0.0108 |
| GTAAGCAA | 0.0172 |
| AATACTTA | -0.0365 |
| TACGAGGA | 0.466 |
| AATGCAAC | 0.111 |

| Sequence | PBM E-score |
| --- | --- |
| CTTTTGGC | -0.116 |
| ATACTTAA | -0.0444 |
| TAATTCGA | 0.108 |
| ATTTCAGC | -0.147 |
| CTGACATC | -0.112 |
| GGCGCGCA | 0.0518 |
| TCCTGCGA | -0.0216 |
| ATGCTTTA | 0.0831 |
| CGGAGGTA | -0.148 |
| AGAGGTCG | 0.0428 |
| AGCTTTTC | -0.0653 |
| CTCGAGTA | 0.114 |
| AGGTTACG | 0.157 |
| CTTGTAAC | 0.184 |
| CTATAAGA | -0.128 |
| ACCACCAG | -0.0822 |
| GCCCTTAC | -0.258 |
| ACTCGAGA | 0.0745 |
| CAGGGGCC | -0.292 |
| GCGGGCAC | -0.172 |
| CTCCTCAG | -0.0882 |
| GTCATCGA | -0.0778 |
| TCCGTCGA | 0.0392 |
| CTTCCAGC | -0.288 |
| TCGAAACA | 0.0188 |

| Sequence | PBM E-score |
| --- | --- |
| AGTTTGGG | -0.23 |
| AGCGGATC | 0.243 |
| AGCAAAAC | -0.151 |
| AATGATGC | 0.0148 |
| AATCAGTG | -0.197 |
| CCGTTAAG | 0.189 |
| TGCAATAA | -0.0622 |
| GATCAGCC | -0.181 |
| AACGTGAC | -0.049 |
| CGGATTGA | 0.0342 |
| ATTGACGG | 0.0598 |
| CGGTAGAA | -0.129 |
| ACCCGCTA | -0.194 |
| ATTCTGTA | -0.0226 |
| AGAAGTAA | -0.177 |
| CGACACCC | 0.0694 |
| CATGTCCC | -0.075 |
| CGCATCTA | 0.145 |
| AAATTATG | -0.098 |
| CTGCCATC | 0.117 |
| AAGTGGTC | -0.127 |
| GAGGTACC | 0.083 |
| GATACTGA | 0.0803 |
| GCTGCTAC | 0.124 |
| CCATCTAG | -0.193 |

| Sequence | PBM E-score |
| --- | --- |
| CGTTTACA | 0.405 |
| GGGCCGAC | -0.119 |
| CCCATTAC | -0.101 |
| ACTCGGCG | 0.165 |
| CTTGCTAA | -0.194 |
| ACCGTATG | 0.325 |
| ACCAAGAT | -0.0873 |
| AGTGAAGG | -0.194 |
| CCACCAAA | -0.13 |
| CCATGGGA | -0.169 |
| AGCCCCAT | -0.174 |
| CCTGGGTA | -0.162 |
| CATGAGAA | -0.109 |
| CTTCCGTC | 0.0605 |
| CCGGGGCA | -0.174 |
| AAAACCCT | -0.223 |
| CCATTCAC | 0.0859 |
| CATGCGAG | 0.239 |
| AAGAAAGG | -0.12 |
| AGCTTCAG | -0.343 |
| AGAAAATG | 0.0291 |
| GCTGAGCC | -0.136 |
| ACAGGGAT | -0.0808 |
| ATCGAAGC | 0.0667 |
| ACCAACCA | -0.00535 |

| Sequence | PBM E-score |
| --- | --- |
| CGTCGTTC | 0.479 |
| CAGGGACC | -0.0874 |
| CAGGTAAA | 0.00568 |
| CACACCGA | 0.146 |
| ACATAACT | -0.114 |
| GGTTGACA | -0.115 |
| ACCGATGC | 0.159 |
| CAAGAGCG | 0.0517 |
| GTAGACAC | -0.043 |
| CGGTGTGA | 0.0529 |
| GAATGCGC | 0.112 |
| ATGACTAA | -0.0589 |
| CCTGGGGA | -0.315 |
| ACAGGCAA | -0.0236 |
| GACGGGTA | -0.129 |
| CATAGGGC | -0.204 |
| ATATGATC | 0.0897 |
| AGAGCGGC | -0.228 |
| ATTGCCAA | 0.0792 |
| GTGAAGCA | -0.0753 |
| GCCAAAGA | -0.124 |
| AATGTGGA | -0.0638 |
| CATTCAGG | -0.293 |
| AAGGAAAG | -0.0693 |
| CCCTTATA | 0.0391 |

| Sequence | PBM E-score |
| --- | --- |
| AACGGGGC | 0.223 |
| CTCAAGTC | -0.126 |
| AACGTCAA | 0.0535 |
| CTTGTGAA | -0.226 |
| AAACGCCA | 0.00397 |
| ATAGGACC | -0.133 |
| AATATGGT | 0.116 |
| AAGGTGCA | -0.231 |
| CGTAGTCC | 0.0185 |
| CTCATGCA | -0.0852 |
| TTATTAAA | 0.0128 |
| GGCATGCC | 0.212 |
| AGTAGCCA | -0.266 |
| ATTTTCTC | -0.117 |
| GATTGATA | -0.0432 |
| AGATTCGA | -0.118 |
| AAAGACCT | -0.212 |
| CTGATAGA | -0.0586 |
| CATGCTGC | -0.168 |
| ATAAGATG | 0.0715 |
| CATATGTC | 0.0627 |
| ATACCACC | -0.0197 |
| CATGCTAG | -0.0159 |
| CTCTATCC | -0.157 |
| GGTTCTAC | 0.00375 |

| Sequence | PBM E-score |
| --- | --- |
| GTCGACTA | 0.102 |
| CTTGCTCC | -0.205 |
| AATTCAAG | 0.039 |
| ACTTGGGA | -0.216 |
| GCTCAAAA | -0.103 |
| CACTCTAC | -0.0474 |
| ACCAGCAG | -0.232 |
| TCAAACCA | 0.071 |
| CGGTGGTC | 0.193 |
| ACATTCAT | -0.178 |
| AGCCAGGA | -0.0313 |
| ATCGGGCA | -0.122 |
| GGCTCACC | -0.219 |
| TGCAACAA | -0.0872 |
| GTATTAGA | 0.173 |
| GCGGAGCC | 0.0562 |
| GATGGGAA | -0.122 |
| AGGTTAAG | -0.253 |
| CGCCCCGA | 0.0029 |
| CCTGAAGG | -0.243 |
| GCACAAAC | -0.0651 |
| CCCCAACA | -0.243 |
| CGGCCTAA | 0.0558 |
| GGCGAGCC | -0.0648 |
| CGGTAACG | 0.19 |

| Sequence | PBM E-score |
| --- | --- |
| CTAGCGAA | 0.00449 |
| AGATGAAA | 0.0166 |
| CATCGATC | -0.00764 |
| CAGACGCA | -0.169 |
| AGTTCCAG | -0.172 |
| GTGACGTA | 0.114 |
| AGAGTTCG | 0.166 |
| CGTAAGGA | 0.271 |
| ATCGATGA | -0.0837 |
| CCTCTCCC | -0.214 |
| CCAGTCGC | 0.0247 |
| ACCTACGA | 0.24 |
| AGTGCCGC | -0.167 |
| CAGGCCTA | -0.218 |
| CACTGATA | -0.135 |
| CCTCAGAA | -0.131 |
| CAACCATG | -0.151 |
| CCGCGGCA | -0.165 |
| AGCTTGAG | -0.194 |
